# Measurements reported in patent US7517874B2 (priority 2007, dated 2009).
# Like-named read-outs stand apart in the source and are kept apart here.
# Molecular target: human CB2 receptor (hCB2) (Homo sapiens, UniProt P34972)
# Assay: cell-based
# Type: cell-based
# Conditions: for +/− HCB2: agonist or inverse agonist at hCB2
# [1] = groups >100 nM-10 μM and >10 μM, cAMP, CHO-K1 hCB2, read-out: EC50 HCB2
# Sequence of human CB2 receptor (hCB2) (P34972 whole entry): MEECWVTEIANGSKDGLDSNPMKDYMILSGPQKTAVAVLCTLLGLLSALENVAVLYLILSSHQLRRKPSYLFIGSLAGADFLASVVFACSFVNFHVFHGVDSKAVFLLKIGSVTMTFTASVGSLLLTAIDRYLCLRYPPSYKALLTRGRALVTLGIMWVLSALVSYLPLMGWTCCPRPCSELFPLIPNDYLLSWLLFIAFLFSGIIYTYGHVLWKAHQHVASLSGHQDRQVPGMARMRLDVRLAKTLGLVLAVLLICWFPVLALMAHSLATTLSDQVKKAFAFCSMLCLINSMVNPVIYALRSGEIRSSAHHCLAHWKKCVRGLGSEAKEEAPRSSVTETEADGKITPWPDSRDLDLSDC
Compound,+/− HCB2,also measured
"Cc1noc([C@@H](NC(=O)c2nc(-c3ccccc3)n3c2CNCC3)C(C)(C)C)n1 [Compound 282, (S)-N-(2,2-dimethyl-1-(3-methyl-1,2,4-oxadiazol-5-yl)propyl)-3-phenyl-5,6,7,8-tetrahydroimidazo[1,5-a]pyrazine-1-carboxamide]",+,
"CNC(=O)[C@@H](NC(=O)c1nc(-c2ccc(C(C)=O)cc2)n2c1CN(C)CCC2)C(C)(C)C [Compound 415, (S)-3-(4-acetylphenyl)-N-(3,3-dimethyl-1-(methylamino)-1-oxobutan-2-yl)-8-methyl-6,7,8,9-tetrahydro-5H-imidazo[1,5-a][1,4]diazepine-1-carboxamide]",+,
"CC(C)CN1CCn2c(-c3ccccc3)nc(C(=O)N[C@H](C(=O)N(C)C)C(C)(C)C)c2C1 [Compound 80, (S)-N-(1-(dimethylamino)-3,3-dimethyl-1-oxobutan-2-yl)-7-isobutyl-3-phenyl-5,6,7,8-tetrahydroimidazo[1,5-a]pyrazine-1-carboxamide]",,EC50: > 10000 nM
"CNC(=O)[C@@H](NC(=O)c1nc(-c2cc(F)c(F)c(F)c2)n2c1CN(C)CCC2)C(C)(C)C [Compound 375, (S)-N-(3,3-dimethyl-1-(methylamino)-1-oxobutan-2-yl)-8-methyl-3-(3,4,5-trifluorophenyl)-6,7,8,9-tetrahydro-5H-imidazo[1,5-a][1,4]diazepine-1-carboxamide]",+,
"CCN1CCn2c(-c3ccc(Cl)cc3)nc(C(=O)N[C@H](CO)C(C)(C)C)c2C1 [Compound 161, (S)-3-(4-chlorophenyl)-7-ethyl-N-(1-hydroxy-3,3-dimethylbutan-2-yl)-5,6,7,8-tetrahydroimidazo[1,5-a]pyrazine-1-carboxamide]",+,
"CNC(=O)[C@H](CC(C)C)NC(=O)c1nc(-c2ccc(Cl)cc2F)n2c1CN(C)CC2 [Compound 276, (S)-3-(4-chloro-2-fluorophenyl)-7-methyl-N-(4-methyl-1-(methylamino)-1-oxopentan-2-yl)-5,6,7,8-tetrahydroimidazo[1,5-a]pyrazine-1-carboxamide]",+,
"CNC(=O)[C@@H](NC(=O)c1nc(-c2cscc2C)n2c1CNCC2)C(C)(C)C [Compound 21, (S)-N-(3,3-dimethyl-1-(methylamino)-1-oxobutan-2-yl)-3-(4-methylthiophen-3-yl)-5,6,7,8-tetrahydroimidazo[1,5-a]pyrazine-1-carboxamide]",+,
"CNC(=O)[C@@H](NC(=O)c1nc(-c2ccccc2)n2c1CN(CC(C)(C)C)CC2)C(C)(C)C [Compound 55, (S)-N-(3,3-dimethyl-1-(methylamino)-1-oxobutan-2-yl)-7-neopentyl-3-phenyl-5,6,7,8-tetrahydroimidazo[1,5-a]pyrazine-1-carboxamide]",−,
"C[C@H](NC(=O)c1nc(-c2ccccc2)n2c1CNCC2)c1ccccc1 [Compound 40, (S)-3-phenyl-N-(1-phenylethyl)-5,6,7,8-tetrahydroimidazo[1,5-a]pyrazine-1-carboxamide]",+,
"CCc1nc(C(=O)N[C@H](C(=O)NC)C(C)(C)C)c2n1CCCN(C)C2 [Compound 492, (S)-N-(3,3-dimethyl-1-(methylamino)-1-oxobutan-2-yl)-3-ethyl-8-methyl-6,7,8,9-tetrahydro-5H-imidazo[1,5-a][1,4]diazepine-1-carboxamide]",+,
"CCN1CCn2c(-c3ccccc3)nc(C(=O)N[C@H](C)C3CCCCC3)c2C1 [Compound 164, (R)-N-(1-cyclohexylethyl)-7-ethyl-3-phenyl-5,6,7,8-tetrahydroimidazo[1,5-a]pyrazine-1-carboxamide]",+,
"CNC(=O)[C@@H](NC(=O)c1nc(-c2cccc(C(N)=O)c2)n2c1CN(C)CCC2)C(C)(C)C [Compound 422, (S)-3-(3-carbamoylphenyl)-N-(3,3-dimethyl-1-(methylamino)-1-oxobutan-2-yl)-8-methyl-6,7,8,9-tetrahydro-5H-imidazo[1,5-a][1,4]diazepine-1-carboxamide]",,EC50: > 10000 nM
"CNC(=O)c1cccc(NC(=O)c2nc(-c3ccc(Cl)cc3F)n3c2CN(C)CC3)c1 [Compound 216, 3-(4-chloro-2-fluorophenyl)-7-methyl-N-(3-(methylcarbamoyl)phenyl)-5,6,7,8-tetrahydroimidazo[1,5-a]pyrazine-1-carboxamide]",,EC50 [1]: > 10000 nM
"CNC(=O)[C@@H](NC(=O)c1nc(C2CCC(F)(F)CC2)n2c1CN(C)CCC2)C(C)(C)C [Compound 528, (S)-3-(4,4-difluorocyclohexyl)-N-(3,3-dimethyl-1-(methylamino)-1-oxobutan-2-yl)-8-methyl-6,7,8,9-tetrahydro-5H-imidazo[1,5-a][1,4]diazepine-1-carboxamide]",+,
"CNC(=O)[C@@H](NC(=O)c1nc(-c2ccc(F)cc2F)n2c1CN(C)CC2)C(C)(C)C [Compound 248, (S)-3-(2,4-difluorophenyl)-N-(3,3-dimethyl-1-(methylamino)-1-oxobutan-2-yl)-7-methyl-5,6,7,8-tetrahydroimidazo[1,5-a]pyrazine-1-carboxamide]",+,
"CNC(=O)[C@@H](NC(=O)c1nc(-c2ccc(F)cc2)n2c1CNCC2)C(C)(C)C [Compound 6, (S)-N-(3,3-dimethyl-1-(methylamino)-1-oxobutan-2-yl)-3-(4-fluorophenyl)-5,6,7,8-tetrahydroimidazo[1,5-a]pyrazine-1-carboxamide]",+,
"CN1CCn2c(-c3ccccc3)nc(C(=O)N[C@H](c3nc(C(C)(C)C)no3)C(C)(C)C)c2C1 [Compound 283, (S)-N-(1-(3-tert-butyl-1,2,4-oxadiazol-5-yl)-2,2-dimethylpropyl)-7-methyl-3-phenyl-5,6,7,8-tetrahydroimidazo[1,5-a]pyrazine-1-carboxamide]",+,
"CNC(=O)[C@@H](NC(=O)c1nc(-c2ccccc2)n2c1CN(S(=O)(=O)c1ccccc1F)CC2)C(C)(C)C [Compound 98, (S)-N-(3,3-dimethyl-1-(methylamino)-1-oxobutan-2-yl)-7-(2-fluorophenylsulfonyl)-3-phenyl-5,6,7,8-tetrahydroimidazo[1,5-a]pyrazine-1-carboxamide]",−,
"CNC(=O)[C@@H](NC(=O)c1nc(-c2ccc(C(=O)OC)cc2F)n2c1CN(C)CCC2)C(C)(C)C [Compound 387, (S)-methyl 4-(1-(3,3-dimethyl-1-(methylamino)-1-oxobutan-2-ylcarbamoyl)-8-methyl-6,7,8,9-tetrahydro-5H-imidazo[1,5-a][1,4]diazepin-3-yl)-3-fluorobenzoate]",+,
"CNC(=O)[C@@H](NC(=O)c1nc(-c2ccccc2F)n2c1CN(C)CCC2)C(C)(C)C [Compound 353, (S)-N-(3,3-dimethyl-1-(methylamino)-1-oxobutan-2-yl)-3-(2-fluorophenyl)-8-methyl-6,7,8,9-tetrahydro-5H-imidazo[1,5-a][1,4]diazepine-1-carboxamide]",+,
"CC(C)(C)C(=O)N1CCn2c(-c3ccccc3)nc(C(=O)NC3CCCCC3)c2C1 [Compound 137, N-cyclohexyl-3-phenyl-7-pivaloyl-5,6,7,8-tetrahydroimidazo[1,5-a]pyrazine-1-carboxamide]",,EC50 [1]: > 10000 nM
"CNC(=O)[C@@H](NC(=O)c1nc(-c2cccc(Cl)c2)n2c1CNCC2)C(C)(C)C [Compound 18, (S)-3-(3-chlorophenyl)-N-(3,3-dimethyl-1-(methylamino)-1-oxobutan-2-yl)-5,6,7,8-tetrahydroimidazo[1,5-a]pyrazine-1-carboxamide]",+,
"CN1CCCn2c(-c3ccc(Cl)cc3F)nc(C(=O)N[C@H](C(N)=O)C(C)(C)C)c2C1 [Compound 573, (S)-N-(1-amino-3,3-dimethyl-1-oxobutan-2-yl)-3-(4-chloro-2-fluorophenyl)-8-methyl-6,7,8,9-tetrahydro-5H-imidazo[1,5-a][1,4]diazepine-1-carboxamide]",+,
"CNC(=O)[C@H](CC(C)C)NC(=O)c1nc(C2=CCCC2)n2c1CN(C)CC2 [Compound 279, (S)-3-cyclopentenyl-7-methyl-N-(4-methyl-1-(methylamino)-1-oxopentan-2-yl)-5,6,7,8-tetrahydroimidazo[1,5-a]pyrazine-1-carboxamide]",+,
"COC(=O)N1CCn2c(-c3ccccc3)nc(C(=O)NC3CCCCC3)c2C1 [Compound 187, methyl 1-(cyclohexylcarbamoyl)-3-phenyl-5,6-dihydroimidazo[1,5-a]pyrazine-7(8H)-carboxylate]",,EC50 [1]: > 10000 nM
"CNC(=O)[C@@H](NC(=O)c1nc(-c2cccs2)n2c1CN(C)CCC2)C(C)(C)C [Compound 349, (S)-N-(3,3-dimethyl-1-(methylamino)-1-oxobutan-2-yl)-8-methyl-3-(thiophen-2-yl)-6,7,8,9-tetrahydro-5H-imidazo[1,5-a][1,4]diazepine-1-carboxamide]",+,
"CN1CCCn2c(-c3ccccc3)nc(C(=O)N[C@H](C(=O)NC3CCC3)C(C)(C)C)c2C1 [Compound 480, (S)-N-(1-(cyclobutylamino)-3,3-dimethyl-1-oxobutan-2-yl)-8-methyl-3-phenyl-6,7,8,9-tetrahydro-5H-imidazo[1,5-a][1,4]diazepine-1-carboxamide]",+,
"CCS(=O)(=O)N1CCn2c(-c3ccccc3)nc(C(=O)N[C@H](C)C3CCCCC3)c2C1 [Compound 111, (R)-N-(1-cyclohexylethyl)-7-(ethylsulfonyl)-3-phenyl-5,6,7,8-tetrahydroimidazo[1,5-a]pyrazine-1-carboxamide]",+,
"CNC(=O)[C@@H](NC(=O)c1nc(-c2ccccc2Cl)n2c1CNCC2)C(C)(C)C [Compound 10, (S)-3-(2-chlorophenyl)-N-(3,3-dimethyl-1-(methylamino)-1-oxobutan-2-yl)-5,6,7,8-tetrahydroimidazo[1,5-a]pyrazine-1-carboxamide]",+,
"CN1CCCn2c(-c3ccccc3)nc(C(=O)Nc3cc(C(C)(C)C)on3)c2C1 [Compound 595, N-(5-tert-butylisoxazol-3-yl)-8-methyl-3-phenyl-6,7,8,9-tetrahydro-5H-imidazo[1,5-a][1,4]diazepine-1-carboxamide]",,EC50: > 10000 nM
